# In PubChem BioAssay (NCI):
#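 Exposure lasted 48 hours, with cells grown in 96-well plates and compounds tested at five concentrations. At the GI50, growth is halved. TGI: concentration producing complete growth inhibition.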 Numbered stars: 1 amine (or outer) side, 2 acyl side, 3 side chain; on linkers, the order of the positions; unused ones are H or OH. Square brackets hold non-standard residues; d marks the D form. Peptide text beside a SMILES is read from it. * marks the point of attachment. X9 = C/C=C/CC(C)C(O)[C@H](N[*:1])C(=O)[*:2]; Decanoyl = CCCCCCCCCC(=O)*; Leu(ol) = CC(C)C[C@H](N)CO; Iva = CC[C@](C)(N)C(=O)O; Aib = CC(C)(N)C(=O)O
# System: NCI-H322M lung
# Assay: growth of human tumour cells (NCI), 48 h
SMILES,GI50 [µM],TGI [µM]
Cc1cc(C)cc(NC2=C(Cl)C(=O)c3nc(C)ccc3C2=O)c1,13.1,27.7
Clc1cccc(/C=N/Nc2nc(N/N=C/c3cccc(Cl)c3)nc(N3CCOCC3)n2)c1,11.3,> 100
COc1ccc([C@H]2[C@H](O)C(=O)N2c2cc(OC)c(OC)c(OC)c2)cc1O,0.0372,> 100
O=C(N/N=C/c1ccc[nH]1)c1[nH]c2ccc(Br)cc2c1-c1ccccc1,0.921,13.3
C/C=C/CC(C)C(O)[C@H](NC(=O)[C@@H]1CCCN1C(=O)C(C)(C)NC(=O)CCCCCCCCC)C(=O)N[C@@](C)(CC)C(=O)N[C@@H](CCC(N)=O)C(=O)N[C@H](CCC(N)=O)C(=O)NC(C)(C)C(=O)NC(C)(C)C(=O)N[C@@H](CCC(N)=O)C(=O)N[C@H](CC(C)C)C(=O)N[C@H](CO)CC(C)C (stereo partly drawn) (Decanoyl-[Aib]P[X9][Iva]Q[dQ][Aib][Aib]Q[dL][Leu(ol)]),1.97,4.64
CN1CCN(Cc2ccc(NC(=O)c3cncc(C#Cc4cnc5ccc(N6CCSCC6)nn45)c3)cc2C(F)(F)F)CC1,0.241,0.748
